In the supplement of paper PMC12067230:
Single values of this set are uncertain.

experiment: amyloid nucleation score relative to library mode (yeast Sup35 reporter selection) (log enrichment difference); higher = more amyloid nucleation; sequences are the first 22 residues of the Bri2 peptide extended by up to 12 random residues; conditions: random library (experiment): 1;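 active = nucleation score significantly above 0 at FDR 0.05; inactive = not significantly above 0 or absent from output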
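Note: [psi-pin-] Saccharomyces cerevisiae expressing SupN fusions, induced by 100 µM Cu2SO4, selected 7 d at 30 °C without adenine and uracil, scored by deep sequencing of output versus input.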

Row | Sequence | amyloid nucleation score
1 | EASNCFAIRHFENKFAVETLICVHAWVVASQALR | inactive
2 | EASNCFAIRHFENKFAVETLICVHDA | inactive
3 | EASNCFAIRHFENKFAVETLICVHFTLCFNEYGL | 3.92
4 | EASNCFAIRHFENKFAVETLICVHGTHTDSGGGR | 0.188
5 | EASNCFAIRHFENKFAVETLICVHGVYLALGRVE | 1.33
6 | EASNCFAIRHFENKFAVETLICVHHPRTKSSLLV | inactive
7 | EASNCFAIRHFENKFAVETLICVHHRTHMLMEGV | 0.109
8 | EASNCFAIRHFENKFAVETLICVHIPVVGLGLRY | inactive
9 | EASNCFAIRHFENKFAVETLICVHIYGQVTFERV | -0.0846
10 | EASNCFAIRHFENKFAVETLICVHKSVSVCVDDR | 2.2
11 | EASNCFAIRHFENKFAVETLICVHLSRRILVSLW | inactive
12 | EASNCFAIRHFENKFAVETLICVHMFRVFACSGL | inactive
13 | EASNCFAIRHFENKFAVETLICVHRDVLPYAGVG | inactive
14 | EASNCFAIRHFENKFAVETLICVHVLDHLGGSDW | inactive
15 | EASNCFAIRHFENKFAVETLICVHVMGRYCCRWS | inactive
16 | EASNCFAIRHFENKFAVETLICVHVTRSEREYGG | 2.53
17 | EASNCFAIRHFENKFAVETLICVHYCLY | inactive
18 | EASNCFAIRHFENKFAVETLICVIAMRLSECFHQ | inactive
19 | EASNCFAIRHFENKFAVETLICVIAYFYEYENEE | inactive
20 | EASNCFAIRHFENKFAVETLICVICLECDRKSAK | 7.81

same assay, conditions: random library (experiment): 2

Row | Sequence | amyloid nucleation score
21 | EASNCFAIRHFENKFAVETLICVHELMFNISARR | 6.89
22 | EASNCFAIRHFENKFAVETLICVHGGDTAYRQTG | -0.191
23 | EASNCFAIRHFENKFAVETLICVHHMPVRPCNGR | inactive
24 | EASNCFAIRHFENKFAVETLICVHHRYLNQHWDV | inactive
25 | EASNCFAIRHFENKFAVETLICVHLCDAMVQRLC | inactive
26 | EASNCFAIRHFENKFAVETLICVHLIIR | inactive
27 | EASNCFAIRHFENKFAVETLICVHMEFCRSSAFM | 6.14
28 | EASNCFAIRHFENKFAVETLICVHPFFYFCLESK | 5.42
29 | EASNCFAIRHFENKFAVETLICVHPFT | 3.9
30 | EASNCFAIRHFENKFAVETLICVHTICL | 4.45
31 | EASNCFAIRHFENKFAVETLICVHVCVFWAAT | inactive
32 | EASNCFAIRHFENKFAVETLICVHVRMRWLYKKE | inactive
33 | EASNCFAIRHFENKFAVETLICVHVRNFNIWRRE | 5.24
34 | EASNCFAIRHFENKFAVETLICVHVTDSGIRCSK | 2.86
35 | EASNCFAIRHFENKFAVETLICVHWYNHALRRGF | 3.27
36 | EASNCFAIRHFENKFAVETLICVHYDVWMVYIGT | inactive
37 | EASNCFAIRHFENKFAVETLICVHYIKCCWDHA | 5.38
38 | EASNCFAIRHFENKFAVETLICVI | 0.58
39 | EASNCFAIRHFENKFAVETLICVIAVVGYVVCCV | 5.22

same assay, conditions: random library (experiment): 3

Row | Sequence | amyloid nucleation score
40 | EASNCFAIRHFENKFAVETLICVHPPASQRQWGS | 6.15
41 | EASNCFAIRHFENKFAVETLICVHRCLNSMFCSW | inactive
42 | EASNCFAIRHFENKFAVETLICVHRHRRKVAPAR | inactive
43 | EASNCFAIRHFENKFAVETLICVHSCANKCNFHN | 6.76
44 | EASNCFAIRHFENKFAVETLICVHSSSL | -0.271
45 | EASNCFAIRHFENKFAVETLICVHVEDKMRLFVV | inactive
46 | EASNCFAIRHFENKFAVETLICVHVLF | 1.87
47 | EASNCFAIRHFENKFAVETLICVHVPALDMGWLR | 1.09
48 | EASNCFAIRHFENKFAVETLICVHWCFGDIYLMS | 1.43
